Measurements reported in PubChem BioAssay AID1345083 (National Center for Advancing Translational Sciences (NCATS), 2018).
Among all 94,000 compounds or so, about 6,200 (6.6%) were called active. Inconclusive means that the source gave no clear call. Such entries were picked first, then a sample of the others. Calls come from the whole dose curve; as a rule, active = well fitted inhibition curve with a large enough effect; inconclusive = small, poorly fitted or top-dose-only effect; inactive = flat fitted curve, though single readings scatter. Where the call is inconclusive, the potency comes from a doubtful curve fit.

experiment: Cytotoxic Profiling in HEK 293 Cell Line of Diverse Libraries Using Quantitative High-Throughput Screening; conditions: HEK 293 viability, ATP luminescence (CellTiter-Glo), 48-72 h; series mostly up to 115 µM; note: nearly all actives have a fitted effect of over 60% in size
How it was run: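 Read-out: CellTiter-Glo ATP luminescence. Cells: HEK 293, 250 cells/well. Exposure: 48 or 72 hr, 37 degree Celsius.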
Potency is the fitted concentration of half-maximal effect; tags give direction and shape of the fitted curve.

Row | SMILES | Potency
1 | COc1cccc(-c2ccc(C(=O)N3CCC(N[S+](=O)([O-])c4c(C)noc4C)CC3)cc2)c1 | active: 22.4 µM
2 | N#Cc1cccc(NC(=O)O[C@@H]2CO[C@H]3[C@@H]2OC[C@@H]3Nc2nccc(-c3cccc(C#N)c3)n2)c1 | inconclusive: 79.4 µM [inhibitor, partial curve]
3 | O=C1CC2(CCN(Cc3ccc(C(F)(F)F)cc3)C2)Nc2ccccc2N1 (stereo not drawn) | inconclusive: 31.6 µM [inhibitor, full curve]
4 | COc1ccc(CCC(=O)N2CCC[C@H]2c2nc(-c3ccc(OC)c(OC)c3)no2)cc1 | inconclusive: 50.1 µM [inhibitor, partial curve, poor fit]
5 | NC(=O)[C@@H]1C[C@H](Oc2ccccc2)CN1C(=O)Cc1cccc(F)c1 | inactive
6 | O=C(CCn1ccn2nc3c(c2c1=O)CCCC3)Nc1ccc(F)cc1F | inconclusive: 70.8 µM [inhibitor, partial curve, poor fit]
7 | O=C(NCC1CCCCC1)C1CCN(c2ccnc3ccnn23)CC1 | inconclusive: 70.8 µM [inhibitor, partial curve]
8 | COc1ccc(-c2noc([C@@H]3C[C@H](NCc4cccc(C#N)c4)CN3C)n2)cc1 | inconclusive: 112 µM [inhibitor, partial curve, poor fit]
9 | O=C(NC1CCN(Cc2ccccc2)CC1)c1nn(CC2CC2)c2c1CNCC2 | inconclusive: 31.6 µM [inhibitor, partial curve, poor fit]
10 | COc1ccc(Cn2c(=O)c(C(=O)NCCCc3ccccc3)nc3cccnc32)cc1 | inconclusive: 56.2 µM [inhibitor, partial curve, poor fit]
11 | CC(C)C(=O)Nc1ccc(C2OC(=O)N(Cc3ccc(F)cc3)C2C(=O)NC2CC2)cc1 (stereo not drawn) | inconclusive: 89.1 µM [inhibitor, single point]
12 | CCCCN(CC)C(=O)CC1CCCN(c2cn[nH]c(=O)c2)C1 (stereo not drawn) | inactive
13 | O=C(NCc1ccc(Cl)cc1)C1CCN(C(=O)c2ncn3c2COC(c2ccccc2)C3)CC1 (stereo not drawn) | inactive
14 | O=C1CC2(CCN(S(=O)(=O)c3ccccc3)CC2)Oc2cc(Cl)ccc21 | inconclusive: 89.1 µM [inhibitor, partial curve, poor fit]
15 | C(Cc1noc(C2CNC2)n1)OCC1CC1 | active: 11.2 µM
16 | O=C1CCN(S(=O)(=O)c2ccccc2)CCCN(CC2CCCCC2)CCN1 | inactive
17 | CCCC(O)CN1CCC(=O)N(CC2CC2)Cc2cc(OC)ccc21 (stereo not drawn) | inconclusive: 56.2 µM [inhibitor, partial curve, poor fit]
18 | O=C(Nc1ccc2c(c1)OCCO2)N1CCN(C(=O)N2CC3CC(C2)[C@H]2CCCC(=O)N2C3)CC1 (stereo partly drawn) | inactive
19 | CCOC(=O)[C@H]1[C@@H](O)C(=O)NC12CCN(C(=O)c1ccc(C)cc1)CC2 | inactive

Row | SMILES | Potency
20 | COc1ccc(C(=O)N[C@@H]2C=C[C@@H](c3c(C)nn(-c4ccccc4)c3C)C2)cc1 | inconclusive: 100 µM [inhibitor, partial curve]
21 | COc1ccc(OCc2cc(C(=O)N3C[C@H]4CC[C@H]3C4)n[nH]2)c(Cl)c1 | inconclusive: 89.1 µM [inhibitor, single point]
22 | COc1ccc([C@@H](NC(=O)c2scc3c2CCCC3)C2CC(O)C2)cn1 (stereo partly drawn) | inconclusive: 56.2 µM [inhibitor, partial curve, poor fit]
23 | Cc1cc(OC2CN(Cc3ccc(C#N)cc3)C2)ccc1F | inconclusive: 89.1 µM [inhibitor, partial curve]
24 | CCc1cccc2c(C(CC(=O)NCCc3ccccc3)c3cccc4c3OCO4)c[nH]c12 (stereo not drawn) | active: 17.8 µM
25 | Cc1ccccc1C(=O)N(C)Cc1ccc(-c2ccccc2)cc1 | inconclusive: 56.2 µM [inhibitor, partial curve, poor fit]
26 | CNC(=O)[C@H]1C[C@H](Oc2ccccc2)CN1C(=O)CCc1nc2ccccc2[nH]1 | inactive
27 | COc1ccc(Cl)cc1C(=O)N1CCC(Oc2ncccc2C(=O)N2CCCCC2)C1 (stereo not drawn) | inconclusive: 50.1 µM [inhibitor, partial curve, poor fit]
28 | Cc1cn2nc(C(=O)NCc3ccc(F)cc3F)cc2c(N2CCCC2)n1 | inconclusive: 70.8 µM [inhibitor, partial curve]
29 | CCCN1CCC2(CCN(C(=O)c3ccccc3F)CC2)Oc2ccccc21 | inconclusive: 50.1 µM [inhibitor, partial curve, poor fit]
30 | O=S(=O)(c1cccnc1)N1CCC(N2CC(OCC3CC3)C23CCOCC3)CC1 (stereo not drawn) | inactive
31 | O=C1CC(c2noc(-c3ccc(F)cc3)n2)CN1c1ccc(F)c(Cl)c1 (stereo not drawn) | inconclusive: 89.1 µM [inhibitor, partial curve, poor fit]
32 | CNC(=O)c1cc(C2CC2)nc2onc(C3CCN([S+](=O)([O-])c4ccc(C)cc4)C3)c12 (stereo not drawn) | inconclusive: 50.1 µM [inhibitor, partial curve]
33 | Cc1ccc(Cn2c(C3CCN(C(=O)c4cccc(Cl)c4)CC3)n[nH]c2=O)cc1 | inconclusive: 56.2 µM [inhibitor, single point]
34 | O=C(Cn1ccn2nc(-c3ccc(F)cc3)c(CO)c2c1=O)NCCCc1ccccc1 | inconclusive: 70.8 µM [inhibitor, partial curve]
35 | COc1ccc(-c2cccc(C(=O)N3CCN([S+](=O)([O-])c4ccc(C)cc4)CC3)c2)nn1 | inconclusive: 79.4 µM [inhibitor, partial curve, poor fit]
36 | Cc1noc(-c2cccs2)c1C(=O)NCCc1cccs1 | inconclusive: 79.4 µM [inhibitor, partial curve, poor fit]
37 | COCC(=O)N1CC(C(=O)NCCc2ccc(OC)cc2)CC(c2ccc(F)c(C)c2)C1 (stereo not drawn) | inconclusive: 50.1 µM [inhibitor, partial curve, poor fit]
38 | COc1ccc(Cn2c(C3CCN(C(=O)c4ccc(C(C)(C)C)cc4)CC3)n[nH]c2=O)cc1 | inconclusive: 50.1 µM [inhibitor, partial curve, poor fit]
